Hit rate of the full screen: of about 310,000 compounds, about 14,000 (4.5%) showed an effect of 50% or more. The effect is printed as a negative number. This is one part of the list.
These molecules were tested against human ether-à-go-go-related gene (hERG) potassium channel (human, UniProt Q12809) (assay: primary screen, population patch clamp on CHO cells stably expressing hERG).
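Also: peak tail current of the secondary pulse compared with the same well before compound.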

human ether-à-go-go-related gene (hERG) potassium channel, sequence (Q12809 whole entry, looked up): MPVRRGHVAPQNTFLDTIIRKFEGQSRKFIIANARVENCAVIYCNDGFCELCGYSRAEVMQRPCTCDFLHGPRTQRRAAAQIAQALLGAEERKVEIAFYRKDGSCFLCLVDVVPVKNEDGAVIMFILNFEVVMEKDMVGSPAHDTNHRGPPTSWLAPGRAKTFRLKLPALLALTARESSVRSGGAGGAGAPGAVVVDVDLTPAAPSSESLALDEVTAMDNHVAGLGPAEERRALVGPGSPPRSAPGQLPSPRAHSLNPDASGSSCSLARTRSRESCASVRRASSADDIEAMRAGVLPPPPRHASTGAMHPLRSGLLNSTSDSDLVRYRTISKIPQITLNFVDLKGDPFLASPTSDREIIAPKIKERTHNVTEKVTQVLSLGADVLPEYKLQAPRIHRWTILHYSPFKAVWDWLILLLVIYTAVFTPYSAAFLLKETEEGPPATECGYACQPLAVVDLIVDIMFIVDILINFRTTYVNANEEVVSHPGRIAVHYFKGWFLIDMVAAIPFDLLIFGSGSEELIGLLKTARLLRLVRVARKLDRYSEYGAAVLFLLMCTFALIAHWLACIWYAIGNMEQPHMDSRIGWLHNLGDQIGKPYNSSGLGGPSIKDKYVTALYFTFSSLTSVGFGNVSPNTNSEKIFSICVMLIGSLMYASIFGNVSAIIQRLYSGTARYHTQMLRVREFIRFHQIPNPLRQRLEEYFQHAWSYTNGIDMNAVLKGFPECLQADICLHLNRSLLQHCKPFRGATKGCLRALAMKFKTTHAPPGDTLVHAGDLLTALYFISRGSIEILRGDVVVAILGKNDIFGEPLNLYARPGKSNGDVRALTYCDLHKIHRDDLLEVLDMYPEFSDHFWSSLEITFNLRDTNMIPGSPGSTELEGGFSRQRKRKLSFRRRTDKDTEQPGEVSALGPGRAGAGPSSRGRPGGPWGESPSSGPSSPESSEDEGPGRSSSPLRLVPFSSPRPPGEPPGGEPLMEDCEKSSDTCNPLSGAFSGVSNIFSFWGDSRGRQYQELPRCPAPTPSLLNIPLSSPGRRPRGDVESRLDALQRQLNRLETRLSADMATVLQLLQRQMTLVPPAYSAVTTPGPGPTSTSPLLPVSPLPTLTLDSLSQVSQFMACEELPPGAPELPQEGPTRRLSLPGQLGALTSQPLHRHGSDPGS

Question: Which “hERG current change (%, negative = inhibition) at 10uM” value does the source give for `COc1cccc(NC(=O)CN(C)CC(=O)Nc2cccc(C(F)(F)F)c2)c1` here?
Answer: Its value is -35%.

Question: Which “hERG current change (%, negative = inhibition) at 10uM” value does the source give for `COC(=O)c1ccccc1NC(=O)C1CCN(C(=O)N2CCOc3ccccc32)CC1` here?
Answer: Its value is -59.6%.

Question: With `CC1CC1C(=O)N(CCC1=CCCCC1)c1c(N)n(Cc2ccccc2)c(=O)[nH]c1=O` (stereo not shown) as the molecule, how does the “hERG current change (%, negative = inhibition) at 10uM” value read?
Answer: Its value is 0.478%.

Question: For `COc1cccc2[nH]c3ccccc3c(=O)c12`, which “hERG current change (%, negative = inhibition) at 10uM” value is on record?
Answer: The value was 7.57%.

Question: For `O=[N+]([O-])c1ccc(NC(=S)NCc2ccncc2)cc1`, which “hERG current change (%, negative = inhibition) at 10uM” value is on record?
Answer: Its value is -11.2%.

Question: With `COc1ccc(OCc2n(CC(=O)OC3CC(C)CCC3C(C)C)c3ccccc3[n+]2C)cc1.[Cl-]` (stereo not shown) as the molecule, how does the “hERG current change (%, negative = inhibition) at 10uM” value read?
Answer: The value was -76.4%.

Question: For `COc1ccc(N2CCN(c3ccc(NC(=O)NN)cc3)CC2)cc1`, which “hERG current change (%, negative = inhibition) at 10uM” value is on record?
Answer: The value was 10.8%.

Question: For `COc1cccc(CN2CC(C(=O)NCc3cnn(C)c3)CCC2=O)c1` (stereo not shown), which “hERG current change (%, negative = inhibition) at 10uM” value is on record?
Answer: Its value is 7.43%.

Question: `Cc1ccc(/C=N/NC(=O)c2nnn(-c3nonc3N)c2-c2ccc3c(c2)OCO3)s1` was tested. Which “hERG current change (%, negative = inhibition) at 10uM” value did it give?
Answer: The value was 22.3%.

Question: Which “hERG current change (%, negative = inhibition) at 10uM” value does the source give for `Cc1ccc2oc(C(=O)Nc3nonc3C)c(C)c2c1` here?
Answer: The value was 10.6%.

Question: `Cc1c(Cl)cccc1NC(=O)CSc1nc2ncc(Cl)cc2[nH]1` was tested. Which “hERG current change (%, negative = inhibition) at 10uM” value did it give?
Answer: The value was 17.7%.

Question: Which “hERG current change (%, negative = inhibition) at 10uM” value does the source give for `CC(C)(C)C(=O)Nc1ccc(-c2nc3ccccc3c(=O)o2)cc1` here?
Answer: The value was 14.9%.

Question: For `Cc1cc(C)n(-c2cc(N3CCN(C(=O)c4cccc(Br)c4)CC3)ccc2[N+](=O)[O-])n1`, which “hERG current change (%, negative = inhibition) at 10uM” value is on record?
Answer: Its value is -67.6%.

Question: `C=C1CCC[C@]2(C)C[C@H]3OC(=O)C(CNC(CC)CO)[C@H]3CC12` (stereo partly shown) was tested. Which “hERG current change (%, negative = inhibition) at 10uM” value did it give?
Answer: Its value is 14.8%.

Question: `COc1ccccc1C(=O)Nc1sc2c(c1C(N)=O)CCCC2` was tested. Which “hERG current change (%, negative = inhibition) at 10uM” value did it give?
Answer: Its value is 24%.

Question: `COC(=O)c1cc(COC(=O)CNC(=O)c2cccc(C)c2)oc1C` was tested. Which “hERG current change (%, negative = inhibition) at 10uM” value did it give?
Answer: The value was -8.02%.

Question: How did the “hERG current change (%, negative = inhibition) at 10uM” value turn out when `COC1=C(N2CCOCC2)C(=O)c2ccccc2C1=O` was run?
Answer: The value was 11.2%.

Question: For `O=[N+]([O-])c1cccnc1Oc1ccc(F)cc1F`, which “hERG current change (%, negative = inhibition) at 10uM” value is on record?
Answer: Its value is -2.31%.

Question: For `O=C(NCC1CCCO1)c1ccc(Cl)c(S(=O)(=O)Nc2ccccc2)c1` (stereo not shown), which “hERG current change (%, negative = inhibition) at 10uM” value is on record?
Answer: The value was 2.86%.

Question: `Cn1c(NCC(O)CO)nc2c1c(=O)n(Cc1ccc(Cl)c(Cl)c1)c(=O)n2C` (stereo not shown) was tested. Which “hERG current change (%, negative = inhibition) at 10uM” value did it give?
Answer: The value was -18.5%.

Question: For `O=C(CN(C(=O)c1csnn1)c1cccc(C(F)(F)F)c1)NCc1ccc(F)cc1`, which “hERG current change (%, negative = inhibition) at 10uM” value is on record?
Answer: The value was -12.7%.

Question: Which “hERG current change (%, negative = inhibition) at 10uM” value does the source give for `Cc1nn(Cc2ccc(Cl)cc2Cl)c(C)c1NC(=O)CCl` here?
Answer: Its value is -60.9%.

Question: How did the “hERG current change (%, negative = inhibition) at 10uM” value turn out when `CC1(C)CC(NC(=O)c2coc(=O)c(Br)c2)CC(C)(C)N1` was run?
Answer: The value was 1.43%.

Question: `C/C=C/C=C\C(=O)Nc1cccc(C2=NOC3(C2)C[C@@H](C(N)=O)N(C(=O)c2cc([N+](=O)[O-])cc([N+](=O)[O-])c2)C3)c1` (stereo partly shown) was tested. Which “hERG current change (%, negative = inhibition) at 10uM” value did it give?
Answer: The value was 6.27%.

Question: How did the “hERG current change (%, negative = inhibition) at 10uM” value turn out when `COc1ccc(OC)c(S(=O)(=O)n2c([N+](=O)[O-])cnc2C)c1` was run?
Answer: The value was 13.9%.

Question: For `CCOC(=O)CCc1c(C)c2ccc(OC3CCCCC3=O)c(C)c2oc1=O` (stereo not shown), which “hERG current change (%, negative = inhibition) at 10uM” value is on record?
Answer: The value was -2.38%.

Question: For `CCSc1nnc(NC(=O)CSc2nnc(CNC(=O)c3ccc(OC)c(OC)c3)o2)s1`, which “hERG current change (%, negative = inhibition) at 10uM” value is on record?
Answer: Its value is 13%.

Question: With `Cc1ccc(NC(=O)c2ccc(NS(=O)(=O)c3ccc4[nH]c(=O)[nH]c4c3)cc2)nc1` as the molecule, how does the “hERG current change (%, negative = inhibition) at 10uM” value read?
Answer: Its value is 6.85%.

Question: Which “hERG current change (%, negative = inhibition) at 10uM” value does the source give for `CCOC(=O)c1c(C)[nH]c(C(=O)C(C)OC(=O)c2oc3ccccc3c2COC)c1C` (stereo not shown) here?
Answer: The value was 10.7%.

Question: For `Cc1ccc(-n2cc(CNCCCn3ccnc3C)c(-c3ccc(F)cc3)n2)cc1`, which “hERG current change (%, negative = inhibition) at 10uM” value is on record?
Answer: Its value is -71.7%.

Question: For `O=C(NC1CCCCCC1)c1ccco1`, which “hERG current change (%, negative = inhibition) at 10uM” value is on record?
Answer: The value was 19.1%.

Question: Which “hERG current change (%, negative = inhibition) at 10uM” value does the source give for `Cc1cccc(NC(=O)CCNS(=O)(=O)c2cccc3nonc23)c1` here?
Answer: Its value is 14.4%.

Question: For `COc1ccc(OC(=O)c2cc3ccccc3o2)cc1`, which “hERG current change (%, negative = inhibition) at 10uM” value is on record?
Answer: Its value is 18.4%.

Question: `Clc1ccc2c(c1)C(c1cccs1)=NNC(c1cccnc1)=N2` was tested. Which “hERG current change (%, negative = inhibition) at 10uM” value did it give?
Answer: The value was -22%.

Question: With `CCCC(=O)Nc1nnc(S(=O)(=O)N(CC)c2ccccc2)s1` as the molecule, how does the “hERG current change (%, negative = inhibition) at 10uM” value read?
Answer: Its value is 13.8%.

Question: How did the “hERG current change (%, negative = inhibition) at 10uM” value turn out when `CCCCCC(=O)Nc1cc(N(C)C)nc2ccccc12` was run?
Answer: The value was -74.9%.

Question: Which “hERG current change (%, negative = inhibition) at 10uM” value does the source give for `CCOC(=O)c1ccccc1NC(=O)COC(=O)C(CCSC)NC(=O)COc1ccccc1` (stereo not shown) here?
Answer: Its value is -29.2%.

Question: Which “hERG current change (%, negative = inhibition) at 10uM” value does the source give for `Cc1ccc(CNC(=O)CCC2CCCN(Cc3ccc4cccc(F)c4n3)C2)o1` (stereo not shown) here?
Answer: The value was -52.1%.

Question: For `O=C(NC(=S)NNC(=O)c1ccccc1[N+](=O)[O-])c1ccccc1`, which “hERG current change (%, negative = inhibition) at 10uM” value is on record?
Answer: Its value is 11.3%.

Question: `CC(C)NC(=O)NC(=O)COC(=O)C1(C)CC1(Cl)Cl` (stereo not shown) was tested. Which “hERG current change (%, negative = inhibition) at 10uM” value did it give?
Answer: Its value is 0.161%.

Question: For `O=C(/N=C1/c2ccccc2CN1c1ccccc1)Nc1ccccc1`, which “hERG current change (%, negative = inhibition) at 10uM” value is on record?
Answer: The value was -12.7%.

Question: How did the “hERG current change (%, negative = inhibition) at 10uM” value turn out when `COc1cc2nc(CN3CCN(C(c4ccccc4)c4ccccc4)CC3)[nH]c(=O)c2cc1OC` was run?
Answer: Its value is 1.59%.

Question: How did the “hERG current change (%, negative = inhibition) at 10uM” value turn out when `Cc1ccc(-n2ccc(=O)c(C(=O)O)n2)cc1` was run?
Answer: The value was -0.306%.

Question: How did the “hERG current change (%, negative = inhibition) at 10uM” value turn out when `CCCOc1ccc(C(=O)N(Cc2cccs2)C2CCS(=O)(=O)C2)cc1` (stereo not shown) was run?
Answer: Its value is -8.87%.

Question: `COc1cccc(C(=O)OCC(=O)NC(C)CCc2ccccc2)c1O` (stereo not shown) was tested. Which “hERG current change (%, negative = inhibition) at 10uM” value did it give?
Answer: Its value is -6.36%.

Question: For `COc1ccccc1NC(=O)CCSc1nnnn1C`, which “hERG current change (%, negative = inhibition) at 10uM” value is on record?
Answer: The value was 14.2%.

Question: For `Cc1ccc(N2C(=O)N3[C@H](c4ccc(F)cc4)[C@@H]4C(=O)N(C5CCCCC5)C(=O)[C@@H]4[C@]3(C)C2=O)cc1`, which “hERG current change (%, negative = inhibition) at 10uM” value is on record?
Answer: The value was 6.23%.

Question: For `O=C(CCc1nc(-c2ccccc2)no1)NCc1ccco1`, which “hERG current change (%, negative = inhibition) at 10uM” value is on record?
Answer: Its value is -0.547%.

Question: `Cc1ccsc1/C=N/NC(=O)c1ccc2nc[nH]c2c1` was tested. Which “hERG current change (%, negative = inhibition) at 10uM” value did it give?
Answer: The value was -2.67%.

Question: With `CC(C)(C)OC(=O)N1CCC(c2c(C(=O)O)cnn2-c2ccc(Cl)cc2)CC1` as the molecule, how does the “hERG current change (%, negative = inhibition) at 10uM” value read?
Answer: The value was 7.29%.

Question: With `Cc1ccc(C)n1NC(=O)c1ccco1` as the molecule, how does the “hERG current change (%, negative = inhibition) at 10uM” value read?
Answer: Its value is 14.8%.

Question: How did the “hERG current change (%, negative = inhibition) at 10uM” value turn out when `C/C(N)=C(/C#N)C(=O)CSc1nn(-c2ccc(Cl)cc2)c(=S)s1` was run?
Answer: The value was 12.9%.

Question: For `Br.CN1CCc2cc(O)c(O)cc2C(c2ccccc2)C1` (stereo not shown), which “hERG current change (%, negative = inhibition) at 10uM” value is on record?
Answer: Its value is -13.6%.

Question: `COc1ccc(NC(=O)CN2C(=O)NC(C)(C3CCCCC3)C2=O)c(OC)c1` (stereo not shown) was tested. Which “hERG current change (%, negative = inhibition) at 10uM” value did it give?
Answer: The value was -1.05%.

Question: For `CC(=O)NCCC(=O)Nc1cc(S(=O)(=O)N2CCCCC2)ccc1N1CCN(C)CC1`, which “hERG current change (%, negative = inhibition) at 10uM” value is on record?
Answer: Its value is -9.13%.
